# Values joined by “and” are separate entries in the source; they are usually repeats but may differ in a detail not shown here. Equal entries are not always repeated. Inconclusive results, whose numbers are uncertain, are shown with a selection of clear calls. Potencies beside an inconclusive call are fits to weak or partial responses and may not hold up. Active and inactive are the calls of the source. Unless noted, calls come from the whole dose curve; as a rule, active = well fitted curve in the direction sought with a large enough effect in the repeat runs; inconclusive = weak or mixed curves; inactive = no such curve, though single readings can be large; an effect the other way counts as inactive or inconclusive.
# System: not listed separately
# Assay: qHTS assay to identify small molecule antagonists of the estrogen receptor alpha (ER-alpha) signaling pathway using the BG1 cell line (AID 743080; calls by dose curve;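 note: BG1 cells stimulated with 17beta-estradiol alongside compound; nearly all actives have a fitted effect of over 25% in size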)
# Conditions: BG1Luc4E2 ERE-luciferase antagonist mode, luminescence; activity change, negative = inhibition: at 70.3 µM (top of the series) unless noted
# Method in brief: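 Seeding, 24 h rest, compound transfer from DMSO, 17beta-estradiol addition, 21.5 h incubation, CellTiter-Fluor (30 min, 37 C), then ONE-Glo (30 min, room temperature): this sequence was run on BG1-Luc-4E2 reporter cells.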
# % is set by controls: 0 for no effect and ±100 for the full control effect; potency is the fitted concentration of half-maximal effect; tags give direction and shape of the fitted curve.
SMILES,Potency,"activity change, negative = inhibition"
O=C(OCCCCCOC(=O)c1ccccc1)c1ccccc1,"inconclusive: 30.6 µM [rising, partial curve]",
C1CCC2OC2C1 (stereo not given),,inactive: 5.01% [at 95 µM]
CCc1ccc(CCOc2ccc(CC3SC(=O)NC3=O)cc2)nc1 (stereo not given),inconclusive: 68.6 µM,
O=C1NCCN1,,inactive: 8.88%
CC(C)c1nnc2ccc(-c3ocnc3-c3cc(F)ccc3F)cn12,active: 54.5 µM,
c1cc(CN2CCCCC2)cc(OCCCNc2nc3ccccc3s2)c1,"inconclusive: 33.5 µM [falling, single point]",
O=S(=O)(c1ccccc1)c1ccc(Cl)cc1,active: 68.6 µM,

# System: not listed separately
# Assay: qHTS assay to identify small molecule antagonists of the estrogen receptor alpha (ER-alpha) signaling pathway using the BG1 cell line - cell viability counter screen (AID 743081);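 note: compound given together with 17beta-estradiol as the ER stimulus; nearly all actives have a fitted effect of over 45% in size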
# Conditions: BG1Luc4E2 viability, CellTiter-Fluor, 22 h; activity change, negative = cytotoxicity: at 70.3 µM (top of the series)
SMILES,"activity change, negative = cytotoxicity",Potency
CCO[C@H](Cc1ccc(OCCc2ccc(OS(C)(=O)=O)cc2)cc1)C(=O)O,inactive: -8.63%,
CC1=CCC(O)(C(C)C)CC1 (stereo not given),inactive: 2.23%,
CCOc1cc(OCC)c(C(C)=O)cc1OCC,,"inconclusive: 26.8 µM [cytotoxic, partial curve]"
COc1ccccc1OCC(O)COC(N)=O (stereo not given),,"inconclusive: 0.16 µM [rising, partial curve, poor fit]"
CN1CCN(c2c(F)cc3c(=O)c(C(=O)O)cn(CCF)c3c2F)CC1,,"inconclusive: 0.119 µM [rising, single point]"
c1cnc2cc3c(cc2n1)C1CNCC3C1,inactive: 14.8% [at 95 µM],
Oc1ccc(/C=C/c2cc(O)cc(O)c2)cc1,,"inconclusive: 77.7 µM [cytotoxic, partial curve, poor fit] and inconclusive: 54.5 µM [cytotoxic, partial curve]"
Cc1ccccc1C(OCCN(C)C)c1ccccc1 (stereo not given),,"inconclusive: 11.9 µM [cytotoxic, single point]"
O=C1CCCc2ccccc21,inactive: 12.1% [at 95 µM],
OC(CCCN1CCCCC1)(c1ccccc1)c1ccccc1,,"inconclusive: 0.668 µM [rising, partial curve]"
O=P(OC(CCl)CCl)(OC(CCl)CCl)OC(CCl)CCl,,inactive
Cc1ccc(/C(=C\CN2CCCC2)c2ccccn2)cc1,,inconclusive: 51.1 µM [cytotoxic]
C=CCOc1ccccc1OCC(O)CNC(C)C (stereo not given),,"inconclusive: 5.07 µM [rising, partial curve]"
COS(C)(=O)=O,,inactive
Nc1ccn([C@@H]2O[C@H](CO)[C@@H](O)[C@@H]2O)c(=O)n1,inactive: 4.87%,
Nc1ccn([C@H]2CC[C@@H](CO)O2)c(=O)n1,,"inconclusive: 13.3 µM [rising, partial curve, poor fit]"
C#Cc1cccc(Nc2ncnc3cc(OCCOC)c(OCCOC)cc23)c1,,"inconclusive: 11.9 µM [cytotoxic, full curve]"
CC1=CC(=O)/C(=C(/C)O)C(=O)O1,inactive: 10.3%,
COC(Cc1ccccc1)OC,inactive: -1.99%,
NC(N)=N/N=C/c1c(Cl)cccc1Cl,,"inconclusive: 13.3 µM [cytotoxic, partial curve]"
O=C(O)Cc1sc(-c2ccccc2)nc1-c1ccc(Cl)cc1,,"inconclusive: 18.8 µM [cytotoxic, single point] and inconclusive: 13.3 µM [cytotoxic, single point]"
CO[C@@H]1[C@@H](O[C@@H]2O[C@H](C)[C@@H](O[C@H]3C[C@@](C)(O)[C@@H](O)[C@H](C)O3)[C@H](N(C)C)[C@H]2O)[C@@H](CC=O)C[C@@H](C)[C@@H](O[C@@H]2CC[C@H](N(C)C)[C@@H](C)O2)/C=C/C=C/C[C@@H](C)OC(=O)C[C@H]1OC(C)=O,,"inconclusive: 11.9 µM [cytotoxic, partial curve, poor fit]"
CCCCCCCCCCCBr,inactive: -1.3%,
CCCCOC(=O)c1ccccc1C(=O)OCC(CC)CCCC (stereo not given),inactive: 13.3%,
Cc1ncc([N+](=O)[O-])n1CCO,,inactive

# Biological target: Aromatase (Homo sapiens) (UniProt P11511)
# Assay: qHTS assay to identify aromatase inhibitors (AID 743083); note: nearly all actives have a fitted effect of over 55% in size
# Conditions: MCF-7 aro ERE, testosterone-driven ERE luciferase, 24 h; activity, negative = inhibition: at 70.3 µM (top of the series)
# Sequence of UniProt P11511 (P11511 whole entry, looked up): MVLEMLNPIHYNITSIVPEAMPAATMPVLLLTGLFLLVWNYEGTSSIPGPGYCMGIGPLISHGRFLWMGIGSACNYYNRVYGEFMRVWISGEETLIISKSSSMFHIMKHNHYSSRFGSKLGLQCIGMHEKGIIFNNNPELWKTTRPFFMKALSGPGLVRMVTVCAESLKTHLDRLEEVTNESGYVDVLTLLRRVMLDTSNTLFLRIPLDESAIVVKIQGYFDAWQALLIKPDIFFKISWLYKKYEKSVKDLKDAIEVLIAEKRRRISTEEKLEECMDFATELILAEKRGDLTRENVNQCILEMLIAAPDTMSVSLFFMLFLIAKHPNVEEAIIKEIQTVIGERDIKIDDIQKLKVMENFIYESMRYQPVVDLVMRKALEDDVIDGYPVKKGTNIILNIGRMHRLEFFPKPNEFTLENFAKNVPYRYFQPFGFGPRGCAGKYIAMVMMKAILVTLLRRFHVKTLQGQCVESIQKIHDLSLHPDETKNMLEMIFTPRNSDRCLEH
SMILES,Potency,"activity, negative = inhibition"
Nc1ccc(C(=O)OCCCOC(=O)c2ccc(N)cc2)cc1,active: 30.6 µM,
CC(=O)CC(=O)c1ccccc1,,inactive: 19.5% [at 95 µM]
CC(C)COC(=O)c1ccccc1,"inconclusive: 61.1 µM [inhibitor, partial curve, poor fit]",
O=P(OC(CCl)CCl)(OC(CCl)CCl)OC(CCl)CCl,"inconclusive: 54.2 µM [inhibitor, partial curve] and inconclusive: 68.6 µM [inhibitor, single point]",
Nc1ccn([C@@H]2O[C@H](CO)[C@@H](O)[C@@H]2O)c(=O)n1,,inactive: -3.42%
CCCCCCC(=O)OCC,,inactive: 14.2%

# System: not listed separately
# Assay: qHTS assay to identify aromatase inhibitors - cell viability counter screen (AID 743084);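 note: cells stimulated with testosterone during compound exposure; nearly all actives have a fitted effect of over 55% in size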
# Conditions: MCF-7 aro ERE viability, CellTiter-Fluor, 24 h; activity change, negative = cytotoxicity: at 70.3 µM (top of the series)
SMILES,"activity change, negative = cytotoxicity",Potency
Nc1ccc(C(=O)OCCCOC(=O)c2ccc(N)cc2)cc1,inactive: 6.77%,
CCOc1cc(OCC)c(C(C)=O)cc1OCC,,active: 26.8 µM
CC(C)OC(C)C,inactive: -7.96% [at 95 µM],
Oc1ccc(/C=C/c2cc(O)cc(O)c2)cc1,,"inconclusive: 34.7 µM [cytotoxic, partial curve] and inconclusive: 30.6 µM [cytotoxic]"
NC(=O)Cn1c(=O)cc(CCN2CCN(c3nccc4sccc34)CC2)c2ccc(F)cc21,inactive: -2.84%,
Cc1ccc(/C(=C\CN2CCCC2)c2ccccn2)cc1,,"inconclusive: 32.2 µM [cytotoxic, partial curve, poor fit]"
CCN1CCCC1=O,,inactive
CC(C)C/C=C(\C=O)c1ccccc1,,"inconclusive: 61.1 µM [cytotoxic, partial curve, poor fit]"
CC1=CC(=O)/C(=C(/C)O)C(=O)O1,inactive: 3.22%,
COC(Cc1ccccc1)OC,,"inconclusive: 1.93 µM [rising, full curve, poor fit]"
NC(N)=N/N=C/c1c(Cl)cccc1Cl,,"inconclusive: 29.8 µM [cytotoxic, single point]"
CCCCOC(=O)c1ccccc1C(=O)OCC(CC)CCCC (stereo not given),inconclusive: 31.5%,

# — PubChem BioAssay (Tox21)
